Some of the results follow. These are noisy estimates, calculated here from bound and input reads.

The test concerns the target T1, Pho4 (S. cerevisiae) (UniProt P07270).
T1 sequence: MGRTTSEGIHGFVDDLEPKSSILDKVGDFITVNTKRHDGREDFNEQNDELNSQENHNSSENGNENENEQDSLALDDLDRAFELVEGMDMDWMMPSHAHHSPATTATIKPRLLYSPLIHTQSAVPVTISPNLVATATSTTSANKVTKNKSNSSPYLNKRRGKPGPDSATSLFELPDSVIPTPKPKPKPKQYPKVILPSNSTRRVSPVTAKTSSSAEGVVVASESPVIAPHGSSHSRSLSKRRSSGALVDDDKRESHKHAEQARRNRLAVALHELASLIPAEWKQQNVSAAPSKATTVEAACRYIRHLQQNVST
The experiment in a line: relative binding free energy (BET-seq); higher = weaker binding. The conditions noted are these: reference: library average.
On to AGGTGCACGTGGTATT, for which the “relative binding free energy” value is -0.11 kcal/mol.
To TGATGCACGTGTGAGG belongs 0.02 kcal/mol; to ATTGACACGTGTAAGT, 0.12 kcal/mol; to TTATGCACGTGGTGGT, -0.09 kcal/mol.
Next, CGGTACACGTGGTACG: 0 kcal/mol.
Next, CGTATCACGTGTATTA: 0.07 kcal/mol.
Consider ATGGTCACGTGCTTTG, for which the “relative binding free energy” value was 0.01 kcal/mol.
To ATGTTCACGTGTGTTT belongs 0.27 kcal/mol.
TAGTCCACGTGGTTGT: the “relative binding free energy” value is 0.03 kcal/mol.
Next, GGTTGCACGTGGGTCT: -0.22 kcal/mol; CAGAGCACGTGGGGGG: -0.33 kcal/mol.
On to TTGGTCACGTGGAGAC, for which the “relative binding free energy” value turned out to be 0.11 kcal/mol.
To CGTGGCACGTGGTAAT belongs -0.17 kcal/mol.
Next, AGGCGCACGTGGGATG: -0.35 kcal/mol; ATATTCACGTGAAAGT: 0.37 kcal/mol.
To AGTGGCACGTGGCAGT belongs -0.21 kcal/mol; to AGTTTCACGTGTGACA, 0.37 kcal/mol; to GTATCCACGTGTTTTA, 0.08 kcal/mol.
In the case of AGTAGCACGTGAAGCG, the “relative binding free energy” value was 0.36 kcal/mol.
To ATGGGCACGTGGACGT belongs -0.13 kcal/mol; to TGGATCACGTGAGAAG, 0.39 kcal/mol.
To TTTGTCACGTGGTTAA belongs 0.02 kcal/mol; to TGAATCACGTGGAATG, 0.23 kcal/mol.
Next, TGTTACACGTGGATAG: 0.04 kcal/mol; TTCTACACGTGATGGT: 0.21 kcal/mol.
Turning to TGTAACACGTGGAGGT, the “relative binding free energy” value amounted to 0.03 kcal/mol.
On to GAGGGCACGTGTTGGT, for which the “relative binding free energy” value is 0.02 kcal/mol.
To ATGTTCACGTGGTTAT belongs 0.29 kcal/mol; to TTTGCCACGTGATGGT, 0.09 kcal/mol.
Next, ATGCGCACGTGTATTT: -0.13 kcal/mol; CGGGGCACGTGTGCGA: -0.22 kcal/mol; AGCCGCACGTGGTAGG: -0.15 kcal/mol.
To TTTATCACGTGGGGCA belongs 0.06 kcal/mol; to GGTTTCACGTGGTTTA, 0.3 kcal/mol; to GGCTTCACGTGTTAGT, 0.27 kcal/mol.
Consider ACGGGCACGTGTATGG, for which the “relative binding free energy” value is -0.12 kcal/mol.
To ATGTACACGTGTGGAT belongs 0.12 kcal/mol; to GGTGGCACGTGTTAGC, -0.02 kcal/mol.
Next, TGGTGCACGTGTCTTG: -0.04 kcal/mol.
To TTCGTCACGTGCTTTT belongs 0.01 kcal/mol.
For the sequence TAAGGCACGTGTAGCG, the “relative binding free energy” value was -0.06 kcal/mol.
As for CGTTTCACGTGTGGTG, the “relative binding free energy” value was 0.08 kcal/mol.
To TATTTCACGTGCGTGA belongs -0.02 kcal/mol.
Next, GTGGTCACGTGATAGC: 0.16 kcal/mol; GTTTACACGTGGCTTT: 0.19 kcal/mol; GTGGACACGTGTATTG: 0.13 kcal/mol.
Next, GGAAACACGTGGTGAG: 0.05 kcal/mol.
With AGGATCACGTGATGAT, the “relative binding free energy” value was 0.3 kcal/mol.
To CAACGCACGTGGTGGG belongs -0.14 kcal/mol; to CTATGCACGTGTCTGT, 0.04 kcal/mol.
Next, GTCGGCACGTGTCTTG: 0.09 kcal/mol.
To GCGTGCACGTGCGTGT belongs -0.25 kcal/mol; to GATTACACGTGGGACT, 0.18 kcal/mol.
For TAGTGCACGTGGGCGA, the “relative binding free energy” value is -0.15 kcal/mol.
To GGGGTCACGTGAGTCA belongs 0.17 kcal/mol; to GGCTTCACGTGTCGTT, 0.29 kcal/mol.
On to AAGGGCACGTGGCTGT, for which the “relative binding free energy” value was -0.24 kcal/mol.
As for GTGTACACGTGTAAAT, the “relative binding free energy” value was 0.21 kcal/mol.
To GTAAGCACGTGATGGC belongs 0.22 kcal/mol; to GGGTGCACGTGAACAG, 0.27 kcal/mol; to GATTTCACGTGTGGTG, 0.24 kcal/mol.
To CGGTGCACGTGAGCAT belongs 0.26 kcal/mol; to CTTTGCACGTGCGAGG, 0 kcal/mol; to CTTTTCACGTGGTTCA, 0.27 kcal/mol.
Next, TGCGGCACGTGGTCTT: -0.26 kcal/mol; TTGTTCACGTGAGTCT: 0.46 kcal/mol.
On to TGTATCACGTGTCTTG, for which the “relative binding free energy” value stood at 0.13 kcal/mol.
Next, AGAGGCACGTGGACTG: -0.13 kcal/mol.
To ACGGTCACGTGGGGTT belongs -0.02 kcal/mol.
To TGTTTCACGTGTTTAT belongs 0.28 kcal/mol; to TAGAGCACGTGGTAGT, -0.23 kcal/mol; to GGAAGCACGTGGTGGT, -0.14 kcal/mol.
GCTGACACGTGGTTGT: the “relative binding free energy” value was 0.14 kcal/mol.
Next, GCGTTCACGTGTATGG: 0.4 kcal/mol.
Next, CGGTACACGTGGTTTT: 0.07 kcal/mol; CGGTTCACGTGATGAT: 0.51 kcal/mol.
Next, GCTTGCACGTGCGGTA: -0.05 kcal/mol; GTGTTCACGTGTATGC: 0.36 kcal/mol; GGCGCCACGTGGGTTA: -0.17 kcal/mol.
With AGCGGCACGTGTGCGT, the “relative binding free energy” value was -0.09 kcal/mol.
Next, TTAGGCACGTGGCGAT: -0.11 kcal/mol; GATGGCACGTGGAAGA: 0.09 kcal/mol.
GGTCTCACGTGTGGAG: the “relative binding free energy” value was 0.36 kcal/mol.
Next, AGTTGCACGTGATTTA: 0.07 kcal/mol; TTTGTCACGTGAGCCG: 0.24 kcal/mol; TAGAGCACGTGTATAT: 0.09 kcal/mol.
For AGGTCCACGTGTGCGT, the “relative binding free energy” value was found to be 0.05 kcal/mol.
To GGTATCACGTGCGTTG belongs 0.14 kcal/mol; to GAGAGCACGTGTAATT, 0.21 kcal/mol; to CGTGACACGTGGGCAG, -0.02 kcal/mol.
GGGACCACGTGGGGGT: the “relative binding free energy” value was -0.14 kcal/mol.
Next, TTGTTCACGTGTGTTT: 0.34 kcal/mol; TGGGCCACGTGATTTG: 0.23 kcal/mol.
Next, ATGTTCACGTGCGGTC: 0.16 kcal/mol; CGTTGCACGTGGGTGC: -0.27 kcal/mol; TGAAGCACGTGGCTGG: -0.1 kcal/mol.
Next, AGGCGCACGTGCGTTT: -0.07 kcal/mol.
TGTGTCACGTGTGGGG: the “relative binding free energy” value was determined as 0.2 kcal/mol.
As for AGGGCCACGTGAGTAG, the “relative binding free energy” value stood at 0.04 kcal/mol.
To TTGTGCACGTGTATTT belongs 0.1 kcal/mol; to AGATCCACGTGGGGGA, -0.07 kcal/mol; to GCTGACACGTGGGTGT, -0.15 kcal/mol.
To GTAGGCACGTGCGTCG belongs -0.09 kcal/mol.
With GTCGTCACGTGAATTG, the “relative binding free energy” value worked out at 0.23 kcal/mol.
Next, GAAATCACGTGTTTTT: 0.26 kcal/mol; ATACGCACGTGGCTTT: -0.1 kcal/mol.
Next, AAGGTCACGTGGGGCA: -0.06 kcal/mol.
As to AACGGCACGTGCGTGG, the “relative binding free energy” value was -0.25 kcal/mol.
To TGCTTCACGTGTGGCA belongs 0.32 kcal/mol; to ATATTCACGTGTTCTG, 0 kcal/mol; to CATGTCACGTGATGTG, 0.23 kcal/mol.
Next, AGTAGCACGTGAGGGA: 0.28 kcal/mol.
For GGTATCACGTGAAGGC, the “relative binding free energy” value is 0.29 kcal/mol.
Next, GTTCTCACGTGGGAGT: 0.17 kcal/mol.
To GGTGGCACGTGGGGGT belongs -0.11 kcal/mol.

Values taken from the BET-seq Pho4 binding data (Le et al. 2018).
